The source of these data is the supplement of paper PMC12217912.

B1: TEV protease; numbered along this chain (parent)
chain: MGESLFKGPRDYNPISSSICHLTNESDGHTTSLYGIGFGPFIITNKHLFRRNNGTLVVQSLHGVFKVKDTTTLQQHLVDGRDMIIIRMPKDFPPFPQKLKFREPQREERICLVTTNFQTKSMSSMVSDTSCTFPSGDGIFWKHWIQTKDGQCGSPLVSTRDGFIVGIHSASNFTNTNNYFTSVPKNFMELLTNQEAQQWVSGWRLNADSVLWGGHKVFMVKPEEPFQPVKEATQL

This assay covers variants of B1. Kind of assay: raw area under fraction-flipped curve 0-4 h after induction (AUC4h, not background-subtracted), DNA-recorder readout of cleavage of the substrate (dimensionless); higher = more cleavage of the substrate by the protease variant. Conditions: temperature: 34 °C; time window: 0-4 h after rhamnose induction.

The other results are listed elsewhere or left out. Sequences were assembled here from the parent chain. Values near 0.05 are background.
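Further: Bxb1 expression induced with 0.2% (w/v) L-rhamnose at OD600 near 0.5, cultures sampled hourly, flipped fraction per protease–substrate barcode pair counted by paired-end Illumina sequencing.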

With MGESLFKGPRDYNPISSSICHLTNESDGHTTSLYGIGFGPFIITNKHLFRRNNGTLVVQSLHGVFKVKDTTTLQQHLVDGRDMIIIRMPKDFPPFPQKLKFREPQREERICLVTTNFQTKSMSSMVSDTSCTFPSGDGIFWKHWIQTKDGQCGSPLVSTRDGFIVGIHSASNFTNTNNYFTSVPKNFMELLTNQEAQQWVSGWRLNADSVLWGGHKVFMVKPEEPFQPVKEATQM [L235M], the “area with substrate ENAYFQS” value came out at 0.0634, the “area with substrate ENCYFQS” value came to 0.0706, the “area with substrate ENDYFQS” value is 0.0577 and the “area with substrate ENEYFQS” value worked out at 0.0699. The “area with substrate ENFYFQS” value was found to be 0.0461, the “area with substrate ENHYFQS” value was 0.0671, the “area with substrate ENKYFQS” value worked out at 0.092 and the “area with substrate ENNYFQS” value is 0.0678. Besides, the “area with substrate ENPYFQS” value amounted to 0.065, the “area with substrate ENQYFQS” value was 0.0397, the “area with substrate ENRYFQS” value worked out at 0.0537 and the “area with substrate ENSYFQS” value is 0.0432. Besides, the “area with substrate ENTYFQS” value worked out at 0.0571, the “area with substrate ENVYFQS” value is 0.0894 and the “area with substrate ENYYFQS” value came out at 0.0596.
In the case of MGESLFKGPRDYNPISSSICHLTNESDGHTTSLYGIGFGPFIITNKHLFRRNNGTLVVQSLHGVFKVKDTTTLQQHLVDGRDMIIIRMPKDFPPFPQKLKFREPQREERICLVTTNFQTKSMSSMVSDTSCTFPSGDGIFWKHWIQTKDGQCGSPLVSTRDGFIVGIHSASNFTNTNNYFTSVPKNFMELLTNQEAQQWVSGWRLNADSVLWGGHKVFMVKPEMPFQPVKEATQL [E224M], the “area with substrate ENAYFQS” value amounted to 0.0552, the “area with substrate ENCYFQS” value amounted to 0.0641, the “area with substrate ENDYFQS” value was 0.0623 and the “area with substrate ENEYFQS” value was determined as 0.0354. The “area with substrate ENIYFQS” value is 0.0963, the “area with substrate ENKYFQS” value stood at 0.0567, the “area with substrate ENMYFQS” value worked out at 0.105 and the “area with substrate ENNYFQS” value is 0.0644. Also, the “area with substrate ENPYFQS” value was found to be 0.0591, the “area with substrate ENQYFQS” value amounted to 0.0627, the “area with substrate ENRYFQS” value worked out at 0.0601 and the “area with substrate ENSYFQS” value stood at 0.0507. The “area with substrate ENTYFQS” value was found to be 0.0597, the “area with substrate ENVYFQS” value came out at 0.0707 and the “area with substrate ENYYFQS” value is 0.0651.
For MGESLFKGPRDYNPISSSICHLTNESDGHTTSLYGIGFGPFIITNKHLFRRNNGTLVVQSLHGVFKVKDTTTLQQHLVDGRDMIIIRMPKDFPPFPQKLKFREPQREERICLVTTNFQTKSMSSMVSDTSCTFPSGDGIFWKHWIQTKDGQCGSPLVSTRDGFIVGIHSASNFTNTNNYFTSVPKNFMELLTNQEAQQWVSGWRLNADSVLWGGHKVFMVKPETPFQPVKEATQL [E224T], the “area with substrate ENAYFQS” value amounted to 0.0646, the “area with substrate ENCYFQS” value turned out to be 0.0732, the “area with substrate ENDYFQS” value is 0.0627 and the “area with substrate ENEYFQS” value was determined as 0.0765. Further, the “area with substrate ENFYFQS” value was 0.0609, the “area with substrate ENHYFQS” value amounted to 0.0641, the “area with substrate ENMYFQS” value came out at 0.0823 and the “area with substrate ENQYFQS” value came to 0.0692. Further, the “area with substrate ENRYFQS” value is 0.068, the “area with substrate ENSYFQS” value worked out at 0.061, the “area with substrate ENTYFQS” value came out at 0.0642 and the “area with substrate ENWYFQS” value stood at 0.0576. In addition, the “area with substrate ENYYFQS” value is 0.0513.
On to MGPSLFKGPRDYNPISSSICHLTNESDGHTTSLYGIGFGPFIITNKHLFRRNNGTLVVQSLHGVFKVKDTTTLQQHLVDGRDMIIIRMPKDFPPFPQKLKFREPQREERICLVTTNFQTKSMSSMVSDTSCTFPSGDGIFWKHWIQTKDGQCGSPLVSTRDGFIVGIHSASNFTNTNNYFTSVPKNFMELLTNQEAQQWVSGWRLNADSVLWGGHKVFMVKPEEPFQPVKEATQL [E3P], for which the “area with substrate ENCYFQS” value is 0.0608, the “area with substrate ENEYFQS” value is 0.0581, the “area with substrate ENFYFQS” value was determined as 0.0503 and the “area with substrate ENGYFQS” value was found to be 0.0568. Besides, the “area with substrate ENIYFQS” value was found to be 0.122, the “area with substrate ENNYFQS” value was 0.0652, the “area with substrate ENPYFQS” value was 0.0622 and the “area with substrate ENQYFQS” value worked out at 0.0627. For the same variant, the “area with substrate ENRYFQS” value worked out at 0.0713, the “area with substrate ENSYFQS” value was 0.052 and the “area with substrate ENVYFQS” value is 0.078.
Regarding MGESLFKGPRDYNPISSSICHLTNESDGHTTSLYGIGFGPFIITNKHLFRRNNGTLVVQSLHGVFKVKDTTTLQQHLVDGRDMIIIRMPKDFPPFPQKLKFREPQREERICLVTTNFQTKSMSSMVSDTSCTFPSGDGIFWKHWIQTKDGQCGSPLVSTRDGFIVGIHSASNFTNTNNYFTSVPKNFMELLTNQEAQQWVSGWRLNADSVLWGGHKVFMVKPEEPFQPVKEPTQL [A232P], the “area with substrate ENAYFQS” value was 0.0592, the “area with substrate ENCYFQS” value came out at 0.062, the “area with substrate ENDYFQS” value amounted to 0.0552 and the “area with substrate ENGYFQS” value was 0.0546. Besides, the “area with substrate ENKYFQS” value turned out to be 0.0481, the “area with substrate ENMYFQS” value stood at 0.0727, the “area with substrate ENQYFQS” value turned out to be 0.062 and the “area with substrate ENSYFQS” value came to 0.0634. Besides, the “area with substrate ENWYFQS” value stood at 0.0512.
Consider MGESLFKGPRDYNPISSSICHLTNESDGHTTSLYGIGFGPFIITNKHLFRRNNGTLVVQSLHGVFKVKDTTTLQQHLVDGRDMIIIRMPKDFPPFPQKLKFREPQREERICLVTTNFQTKSMSSMVSDTSCTFPSGDGIFWKHWIQTKDGQCGSPLVSTRDGFIVGIHSASNFTNTNNYFTSVPKNFMELLTNQEAQQWVSGWRLNADSVLWGGHKVFMVKPEEPYQPVKEATQL [F226Y], for which the “area with substrate ENAYFQS” value is 0.0664, the “area with substrate ENCYFQS” value turned out to be 0.052, the “area with substrate ENDYFQS” value came out at 0.0445 and the “area with substrate ENEYFQS” value amounted to 0.0655. The “area with substrate ENFYFQS” value was 0.0337, the “area with substrate ENGYFQS” value is 0.0606, the “area with substrate ENHYFQS” value amounted to 0.0595 and the “area with substrate ENIYFQS” value was 0.114. Besides, the “area with substrate ENKYFQS” value is 0.0647, the “area with substrate ENMYFQS” value turned out to be 0.0932, the “area with substrate ENNYFQS” value was determined as 0.0838 and the “area with substrate ENPYFQS” value stood at 0.0637. Also, the “area with substrate ENQYFQS” value stood at 0.0746, the “area with substrate ENRYFQS” value stood at 0.0548, the “area with substrate ENSYFQS” value worked out at 0.0591 and the “area with substrate ENTYFQS” value is 0.064. Moreover, the “area with substrate ENVYFQS” value was determined as 0.0808 and the “area with substrate ENYYFQS” value came out at 0.0771.
Take MGESLFKGPRDYNPISSSICHLTNESDGHTTSLYGIGFGPFIITNKHLFRRNNGTLVVQSLHGVFKVKDTTTLQQHLVDGRDMIIIRMPKDFPPFPQKLKFREPQREERICLVTTNFQTKSMSSMVSDTSCTFPSGDGIFWKHWIQTKDGQCGSPLVSTRDGFIVGIHSASNFTNTNNYFTSVPKNFMELLTNQEAQQWVSGWRLNADSVLWGGHKVFMVKPEEPFEPVKEATQL [Q227E]: the “area with substrate ENAYFQS” value was found to be 0.0661, the “area with substrate ENCYFQS” value turned out to be 0.0648, the “area with substrate ENDYFQS” value was 0.0713 and the “area with substrate ENEYFQS” value was 0.0281. Further, the “area with substrate ENFYFQS” value stood at 0.0566, the “area with substrate ENGYFQS” value turned out to be 0.0561, the “area with substrate ENHYFQS” value was found to be 0.0501 and the “area with substrate ENIYFQS” value turned out to be 0.121. The “area with substrate ENKYFQS” value is 0.0684, the “area with substrate ENQYFQS” value was found to be 0.0606, the “area with substrate ENSYFQS” value was found to be 0.0752 and the “area with substrate ENTYFQS” value was 0.0687. For the same variant, the “area with substrate ENVYFQS” value came out at 0.0774 and the “area with substrate ENWYFQS” value was 0.0044.
For MGESLFKGPRDYNPISSSICHLTNESDGHTTSLYGIGFGPFIITNKHLFRRNNGTLVVQSLHGVFKVKDTTTLQQHLVDGRDMIIIRMPKDFPPFPQKLKFREPQREERICLVTTNFQTKSMSSMVSDTSCTFPSGDGIFWKHWIQTKDGQCGSPLVSTRDGFIVGIHSASNFTNTNNYFTSVPKNFMELLTNQEAQQWVSGWRLNADSVLWGGHKVFMVKPEEPFMPVKEATQL [Q227M], the “area with substrate ENAYFQS” value was 0.0548, the “area with substrate ENCYFQS” value came out at 0.0713, the “area with substrate ENDYFQS” value was determined as 0.0636 and the “area with substrate ENEYFQS” value was 0.0656. For the same variant, the “area with substrate ENFYFQS” value came to 0.0519, the “area with substrate ENGYFQS” value was found to be 0.0489, the “area with substrate ENHYFQS” value turned out to be 0.0627 and the “area with substrate ENIYFQS” value was determined as 0.128. For the same variant, the “area with substrate ENKYFQS” value was 0.0566, the “area with substrate ENPYFQS” value came out at 0.0507, the “area with substrate ENQYFQS” value is 0.0645 and the “area with substrate ENRYFQS” value turned out to be 0.0706. In addition, the “area with substrate ENSYFQS” value was determined as 0.0657, the “area with substrate ENVYFQS” value amounted to 0.0691, the “area with substrate ENWYFQS” value came out at 0.0548 and the “area with substrate ENYYFQS” value turned out to be 0.0389.
Take MGESLFKGPRDYNPISSSICHLTNESDGHTTSLYGIGFGPFIITNKHLFRRNNGTLVVQSLHGVFKVKDTTTLQQHLVDGRDMIIIRMPKDFPPFPQKLKFREPQREERICLVTTNFQTKSMSSMVSDTSCTFPSGDGIFWKHWIQTKDGQCGSPLVSTRDGFIVGIHSASNFTNTNNYFTSVPKNFMELLTNQEAQQWVSGWRLNADSVLWGGHKVFMVKPEEPFPPVKEATQL [Q227P]: the “area with substrate ENAYFQS” value was found to be 0.0626, the “area with substrate ENDYFQS” value is 0.0687, the “area with substrate ENEYFQS” value amounted to 0.0517 and the “area with substrate ENFYFQS” value was 0.0559. The “area with substrate ENGYFQS” value was found to be 0.0037, the “area with substrate ENHYFQS” value came out at 0.0643, the “area with substrate ENIYFQS” value was 0.104 and the “area with substrate ENNYFQS” value was 0.0641. For the same variant, the “area with substrate ENQYFQS” value was found to be 0.0668, the “area with substrate ENSYFQS” value was 0.0577 and the “area with substrate ENVYFQS” value is 0.082.
